In publication PMC6919601, “Identification of Plasmodium dipeptidyl aminopeptidase allosteric inhibitors by high throughput screening” (PLoS ONE, 2019):
In all, about 110,000 compounds went through this assay and about 230 (0.21%) showed an effect of 50% or more. Some of the results follow.

These molecules were tested against DPAP1 (Plasmodium falciparum, UniProt Q8IIJ9) (assay: primary screen, percent inhibition; read by cleavage of a fluorogenic dipeptide substrate; higher = more effect of the substance).
Set-up: species or system P. falciparum D10 trophozoite lysates; single well
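Note: 30 min substrate incubation versus DMSO and 10 µM JCP410 controls.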

Sequence of DPAP1 (Q8IIJ9 whole entry, looked up): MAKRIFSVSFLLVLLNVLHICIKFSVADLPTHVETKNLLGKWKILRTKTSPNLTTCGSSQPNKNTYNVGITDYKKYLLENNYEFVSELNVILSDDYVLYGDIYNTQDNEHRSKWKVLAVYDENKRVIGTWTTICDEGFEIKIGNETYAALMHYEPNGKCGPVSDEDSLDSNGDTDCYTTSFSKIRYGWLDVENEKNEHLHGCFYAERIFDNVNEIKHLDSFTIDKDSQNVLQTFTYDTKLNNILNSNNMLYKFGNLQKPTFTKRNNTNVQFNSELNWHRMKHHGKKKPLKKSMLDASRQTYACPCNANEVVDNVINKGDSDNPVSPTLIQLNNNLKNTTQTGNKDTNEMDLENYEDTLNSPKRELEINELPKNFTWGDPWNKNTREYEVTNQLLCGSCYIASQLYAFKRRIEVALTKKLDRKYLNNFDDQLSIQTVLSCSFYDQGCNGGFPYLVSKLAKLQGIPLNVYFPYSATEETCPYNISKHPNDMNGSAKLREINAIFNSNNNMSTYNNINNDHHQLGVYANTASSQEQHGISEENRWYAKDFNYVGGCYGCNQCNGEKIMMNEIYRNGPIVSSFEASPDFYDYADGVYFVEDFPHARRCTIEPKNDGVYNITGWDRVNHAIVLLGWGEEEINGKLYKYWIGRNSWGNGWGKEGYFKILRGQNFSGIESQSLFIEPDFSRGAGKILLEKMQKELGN

SMILES | % Inhibition @ 10 uM [%]
Cc1ccc(NC(=O)COc2ccccc2)cc1O | -0.318
O=S(=O)(NCC(c1ccccc1)N1CCNCC1)c1ccccc1 (stereo not drawn) | -2.28
COc1ccc(C(=O)NCCN2CCN(C(=O)c3ccc(OC)cc3)CC2)cc1 | -2.76
CCCOc1ccc(C2C(=O)N(C3CCC(C)CC3)CC(=O)N2C2CCCC2)cc1OC (stereo not drawn) | 2.79
O=C1NC(=O)C(=Cc2c[nH]c3ccc(OCc4ccccc4)cc23)C(=O)N1 | -1.1
O=C1CCCN1CC(CN1CCOCC1)Sc1nnnn1-c1ccccc1 (stereo not drawn) | -3.06
CC(C)CCNC(=O)[C@H](Cc1ccccc1)N1Cc2ccccc2C1=O | -2.25
O=C1NC(=S)N/C1=C\c1cccc2ccccc12 | -1.2
CCOc1ccc(CCNS(=O)(=O)c2ccc(-c3ccc(O)nn3)o2)cc1OCC | 5.57
COc1ccc(CCNC(=O)CCc2c(C)c3ccc(O)cc3oc2=O)cc1OC | 0.895
CCC(C)NC(=O)CN1C(=O)C(c2ccccc2)Oc2cccnc21 (stereo not drawn) | -2.39
O=C(O)c1cc(C(=O)O)c2ccccc2n1 | -6.32
COc1ccc(Cl)cc1C(=O)NCc1cn(C)nc1C | 0.115
CC1=C(C(=O)OCC(F)(F)F)C(c2ccc(F)cc2)NC(=O)N1 (stereo not drawn) | -0.0804
CC(C)Oc1ccc(C(CC(=O)O)NC(=O)CCCc2ccccc2)cc1 (stereo not drawn) | -2.5
NC(=O)c1cc(S(=O)(=O)N(Cc2ccc(F)cc2)Cc2cccnc2)cs1 | 0.879
COc1ccccc1N1CCN(C(=O)C2CCCO2)CC1 (stereo not drawn) | -5.6
CC(C)(C)c1cc(Br)cc(C=O)c1O | -1.77
Cc1ccc(C(=O)/C=C\Nc2cc(C)on2)cc1 | -1.06
CC1=NN2C(=N)/C(=C\c3ccc(OCc4cc(=O)n5nc(C)sc5n4)c(Cl)c3)C(=O)N=C2S1 | -9.6
CC(C)c1ccc(NC2CC(=O)N(c3ccc(F)cc3)C2=O)cc1 (stereo not drawn) | -4.06
COc1ccc(Br)cc1CN1CCSCC1 | 1.38
O=C([C@H](Cc1ccccc1)N1Cc2ccccc2C1=O)N1CCN(Cc2ccccc2)CC1 | 4.54
CC(=O)N1CCC(=O)N1c1ccccc1 | -0.744
COCCNC(=O)c1cc2sc(Cl)cc2n1C | 0.291
CC(=O)Nc1ccc(NC(=O)CCN2C(=O)c3ccccc3C2=O)cc1 | 1.7
O=C(NCc1cccs1)C1CC(=O)N(c2ccc(F)cc2)C1 (stereo not drawn) | 1.71

SMILES | % Inhibition @ 10 uM [%]
CN1CCC(N2CCN(c3ccc([N+](=O)[O-])cc3)CC2)CC1 | 3.18
CCOC(=O)c1c(NC(=O)CC2NCCNC2=O)sc2c1CCCC2 (stereo not drawn) | 1.72
Clc1ccccc1CNCc1ccc2c(c1)OCO2 | -17.9
COc1ccc(Br)cc1C1N(c2ccccn2)C(=O)C2CCCN21 (stereo not drawn) | 1.23
Cn1c(C(=O)NCCc2ccc(Cl)cc2)cc2sccc21 | -3.08
CSc1ccc(CN2CCCC(O)C2)cc1 (stereo not drawn) | -3.56
Cc1ccc(C(=O)NCCc2ccc(S(N)(=O)=O)cc2)cc1C | -7.83
O=C(CSc1nc2ccccc2[nH]1)NCCC1=CCCCC1 | 4.61
CCOc1ccccc1CNC(=O)c1c(C)nn(-c2ccc(F)cc2)c1-n1cccc1 | -8.99
CCCc1[nH]nc2c1C(c1ccccc1OC(F)F)C(C#N)=C(N)O2 (stereo not drawn) | 0.673
CC(C)(C)OC(=O)N[C@@H](CSCc1ccccc1)C(=O)NCC#N | -0.214
CC1=NN(C(=O)COc2ccccc2C)C(O)(c2cccnc2)C1 (stereo not drawn) | 4.05
S=C(Nc1ccc(Cl)cc1)N1CCN(Cc2ccccc2)CC1 | -4.32
CCC(O)c1nc2ccccc2n1CCOc1ccccc1Cl (stereo not drawn) | -4.91
COCC(=O)Nc1nc2ccccc2s1 | 5.3
CC1=C(C(=O)OCCOC(C)C)C(c2ccccc2C(F)(F)F)CC(=O)N1 (stereo not drawn) | -1
CNCc1ccccc1Sc1ccc(O)c(O)c1 | -7.1
Cc1cc(-c2ccccc2)n(-c2ccc(C(=O)NC(C)C)cc2)n1 | 0.389
COc1ccccc1N1CCN(C(=O)CSCc2ccccc2C)CC1 | -5.34
CCOc1cc2c(cc1OC)C(c1ccccc1F)NCC2 (stereo not drawn) | 2.49
COc1cccc(OC)c1C(=O)N1CCCCCC1 | -3.35
O=C1C2C3C=CC(O3)C2C(=O)N1c1ccc(Cl)cc1Cl (stereo not drawn) | -0.67
Cn1cnc2c(=O)oc3ccc(S(=O)(=O)N4CCN(c5ccccn5)CC4)cc3c21 | -0.602
COc1ccccc1-n1c(CCC(=O)O)ccc1-c1ccccc1 | 6.73
Cc1ccc(NC(=O)C2COc3ccccc3O2)cc1C (stereo not drawn) | 11.6
CC1CCc2c(sc3nc(-c4cccs4)oc(=O)c23)C1 (stereo not drawn) | 3.48
CCOc1cc(CNCCc2ccc(Cl)cc2)ccc1OC | -0.999

SMILES | % Inhibition @ 10 uM [%]
N=C1/C(=C\c2ccc(SCc3ccco3)o2)C(=O)N=C2SC(Cc3ccccc3)=NN12 | 0.458
O=C(O)CCc1nc2cc(C(=O)O)ccc2[nH]1 | -2.14
CCC1=NN(C(=O)c2ccccc2OC)C(O)(c2ccc(OC)cc2)C1 (stereo not drawn) | -1.02
CCN(CC)CCN(CC)Cc1ccc(SC)cc1 | -0.0953
Oc1cc(C(F)(F)F)nn1-c1nc2ccccc2s1 | 6.12
CCOc1ccc2nc(SCC(=O)N3CCN(S(=O)(=O)c4ccc(C)cc4)C3)sc2c1 | 1.74
O=C(CN1C(=O)c2ccccc2S1(=O)=O)N1CCC(Cc2ccccc2)CC1 | 2.95
CC1CCN(c2nn3nnnc3c3ccccc23)CC1 | 0.977
O=C(c1ccccc1)c1ccc(C(=O)N2CCN(c3nc4ccccc4o3)CC2)o1 | -2.63
O=C(NCc1ccco1)c1ccc(-n2ccc3ccccc32)s1 | 3.45
Cc1nn(C)cc1CNC(=O)c1ccc(F)cc1 | -3.05
COC(=O)C1=CN(C(C)C)C=C(C(=O)OC)C1c1ccccc1OC(C)C | -3.46
CCOC(=O)c1c(C=O)c2ccccc2n1Cc1ccccc1F | -3.53
Cc1ccc(-c2nn(-c3ccccc3)cc2C=O)cc1 | 1.76
OCCN1CCN(CC(c2ccccc2)c2ccccc2)CC1 | -1.5
Cc1nc2c3c(-c4ccccc4)nc(N4CCCCC4)nc3nn2c(C)c1CCC(=O)O | -2.87
CCCSc1oc(-c2ccccc2)nc1S(=O)(=O)c1ccccc1 | -8.16
CCCN1CCN(C(=O)c2cc3ccc4cccnc4c3[nH]2)CC1 | -4.41
CC(=O)ON1C(=O)C(c2ccccc2)=C(c2ccccc2)C1=O | 82
Cc1cc2c(c(SCC(=O)NCc3ccccc3Cl)n1)C(=O)OC2 | -0.834
CCCNC(=O)Cn1ncc2c3ccccc3n(Cc3ccccc3F)c2c1=O | 3.4
Cc1cc(C)cc(-n2nnc(-c3nc(-c4ccc(Cl)cc4)no3)c2N)c1 | 5.95
Cn1c2ccccc2c2cnn(CC(=O)NC3CCCC3)c(=O)c21 | -7.6
O=C1[C@H]2CC=CC[C@H]2C(=O)N1CNc1ccc(F)cc1 | -0.68
Cc1oc2ccc(O)c(CN3CCCC3)c2c1C(=O)OCCOc1ccccc1 | -4.82
CC1CCN(S(=O)(=O)c2ccc(NC(=O)C(F)(F)F)cc2)CC1 | -0.759
Cc1cc(C)c2oc(C(=O)N(Cc3ccccc3)C3CCS(=O)(=O)C3)cc(=O)c2c1 (stereo not drawn) | 6.56

SMILES | % Inhibition @ 10 uM [%]
COc1ccccc1C1SCC(=O)Nc2c1c(C)nn2C1CCOC(C)(C)C1 (stereo not drawn) | 2.89
Cc1ccc2occ(/C=C/C(=O)c3ccccc3O)c(=O)c2c1 | -2.14
Cc1ccccc1C(=O)Nc1ccc(F)cc1F | -1.25
O=C(NCc1cccnc1)c1cc(-c2ccc(O)cc2)on1 | -2.65
Cc1cc(C)c(NC(=O)C2CCCN2c2ccccc2)c(C)c1 (stereo not drawn) | 1.43
CC(C)OCC(O)CNC(C)(C)CC(C)(C)C (stereo not drawn) | 8.71
C=CCOc1ccc(/N=c2/onc(C)cc2-c2ccccc2)cc1 | -2.53
CCOC(=O)c1ccc(-c2ccc(/C=C(/C#N)C(=O)N3CCOCC3)o2)cc1 | -1.84
C=CCn1c(=O)c2c(nc3n2CCS3)n(C)c1=O | -1.2
CCOc1cc(C(=O)Nc2sc3c(c2C#N)CCC(C)C3)cc(OCC)c1OCC (stereo not drawn) | 1.25
O=C(c1cc2c(Cl)ccc3c2n1CCO3)N1CCOCC1 | 2.48
O=C(CCCCCN1C(=O)c2ccccc2C1=O)Nc1ccc(C(=O)O)cc1 | -3.16
CCOC(=O)c1c(NC(=O)c2ccc(C(F)(F)F)cc2)sc2c1CCCC2 | -1.93
COc1ccc(C(=O)N/C(=C\c2ccc3c(c2)OCO3)C(=O)NCC(=O)O)cc1 | -4.76
OC(COc1ccccc1)Cn1ccnc1 (stereo not drawn) | 3.16
COc1cc(C)c(CNCCc2ccc(OC)c(OC)c2)cc1C | 9.1
Cc1sc(N)nc1C12CC3CC(CC(C3)C1)C2 | -0.0369
O=C(CCCOc1ccc(Cl)cc1Cl)NCc1ccco1 | 8.74
CC1=C(c2ccc(C(C)C)cc2)S(=O)(=O)N=C1NC1CCC(C)CC1 (stereo not drawn) | 2.27
CC1CCN(C(=O)c2cnn(-c3ccccc3Cl)c2C2CCN(C(=O)OC(C)(C)C)CC2)CC1 | 0.184
Cc1ccnn1-c1nc(-c2ccc(F)cc2)cc(C(F)(F)F)n1 | -3.12
CCNC(=S)Nc1sc2c(c1C(=O)OCC)CC(C)(C)OC2 | 4.57
COc1ccc(CCN2CC(C(=O)NCc3ccc(C)cc3)CC2=O)cc1OC (stereo not drawn) | 1.62
COc1ccc(-c2noc(N3CCC(C(=O)NCc4ccc(F)cc4)CC3)n2)cc1 | -3.73
